Data reported in publication PMC4336329 (PLoS ONE, 2015).
In all, about 310,000 compounds went through this assay and about 2,200 (0.71%) showed an effect of 50% or more. Effects have a minus sign here. This is one part of the list.

target: human ether-à-go-go-related gene (hERG) potassium channel (human, UniProt Q12809); assay: primary screen, population patch clamp on CHO cells stably expressing hERG
Sequence (Q12809 whole entry, looked up): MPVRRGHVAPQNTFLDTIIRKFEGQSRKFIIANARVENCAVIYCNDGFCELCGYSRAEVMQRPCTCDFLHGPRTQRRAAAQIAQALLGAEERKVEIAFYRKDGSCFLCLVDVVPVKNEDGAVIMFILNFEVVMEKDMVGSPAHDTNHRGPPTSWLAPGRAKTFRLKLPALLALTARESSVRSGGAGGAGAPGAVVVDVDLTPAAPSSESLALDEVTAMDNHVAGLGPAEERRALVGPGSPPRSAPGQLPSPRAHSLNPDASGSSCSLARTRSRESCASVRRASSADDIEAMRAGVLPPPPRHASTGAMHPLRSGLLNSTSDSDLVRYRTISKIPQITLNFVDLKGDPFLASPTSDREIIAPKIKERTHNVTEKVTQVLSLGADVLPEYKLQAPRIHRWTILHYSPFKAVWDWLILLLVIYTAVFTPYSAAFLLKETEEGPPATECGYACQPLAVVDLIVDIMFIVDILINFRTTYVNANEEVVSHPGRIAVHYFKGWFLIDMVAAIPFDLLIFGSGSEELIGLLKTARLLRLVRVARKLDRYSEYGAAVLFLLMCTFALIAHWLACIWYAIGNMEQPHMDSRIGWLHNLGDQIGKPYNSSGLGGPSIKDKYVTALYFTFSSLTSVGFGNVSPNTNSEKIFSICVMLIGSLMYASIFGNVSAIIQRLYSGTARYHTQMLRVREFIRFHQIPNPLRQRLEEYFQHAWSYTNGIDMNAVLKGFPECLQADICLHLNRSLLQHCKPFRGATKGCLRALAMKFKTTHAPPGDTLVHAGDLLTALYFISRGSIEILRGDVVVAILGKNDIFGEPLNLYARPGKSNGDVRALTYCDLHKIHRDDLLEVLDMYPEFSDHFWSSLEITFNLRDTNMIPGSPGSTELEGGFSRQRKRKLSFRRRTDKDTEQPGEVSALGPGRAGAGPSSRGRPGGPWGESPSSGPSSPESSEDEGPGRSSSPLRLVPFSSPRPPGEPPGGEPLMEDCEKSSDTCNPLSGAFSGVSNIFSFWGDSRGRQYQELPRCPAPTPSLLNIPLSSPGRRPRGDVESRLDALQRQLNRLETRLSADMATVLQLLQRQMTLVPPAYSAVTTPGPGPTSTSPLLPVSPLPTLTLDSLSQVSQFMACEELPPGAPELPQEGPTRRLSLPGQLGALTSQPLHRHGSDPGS

| Compound | hERG current change (%, negative = inhibition) at 1uM |
| --- | --- |
| C(=N\NC1=NCCN1)/c1ccncc1.Cl | 8.57% |
| CN(C(=S)NC(=O)Cc1ccccc1)c1ccccc1 | 8.53% |
| CC(C)(C)C1(c2ccccc2)NC(=O)N(CC(=O)N2CCOCC2)C1=O (stereo not shown) | -6% |
| COc1ccc(CC[NH+](C)CCCN2CC(c3ccccc3)CC2=O)cc1OC.O=C([O-])C(=O)[O-] (stereo not shown) | -61.9% |
| COC(=O)c1ccc(CN2[C@H](C(=O)OC)C[C@@]3(O)[C@H](O)[C@H](O)[C@H](O)C[C@@H]23)cc1 | -10.5% |
| Cl.O=C(c1ccco1)N1CCN(C/C=C/c2ccccc2)CC1 | -3.18% |
| CN1CCN(C2=C(Cl)C(=O)N(C3CCCCC3)C2=O)CC1 | -5.33% |
| O=C(c1ccco1)N1CCC(c2nc3ccccc3[nH]2)CC1 | 1.48% |
| Cl.NC(N)=Nc1nc(C2COc3ccccc3O2)cs1 (stereo not shown) | 6.1% |
| CC(C)NS(=O)(=O)c1ccc(NC(=O)C(C)OC(=O)C2CCC2)cc1 (stereo not shown) | 19.5% |
| CN1CCN(C(=O)/C=C\c2ccc(Cl)cc2)CC1 | -9.84% |
| CC1=C(C(=O)Nc2ccccn2)C(c2ccc3c(c2)OCO3)C2=C(CC(C)(C)CC2=O)N1 (stereo not shown) | 10.7% |
| O=C(C1CCN(Cc2ccc(F)cc2)CC1)N1CCN(C/C=C/c2ccccc2)CC1.O=C(O)C(=O)O | 4.01% |
| COc1cccc(-c2cc3onc(-c4ccccc4)c3c(=O)n2C)c1 | 4.51% |
| Cc1c(N2C(=O)C(=O)/C(=C(/O)c3ccc(Cl)cc3)C2c2ccccc2)c(=O)n(-c2ccccc2)n1C (stereo not shown) | 2.52% |
| O=C(CSc1nnc(-c2ccc(F)cc2)c2ccccc12)Nc1cccc(Cl)c1 | 1.25% |
| O=C(/C=C/c1ccccc1Cl)NCc1cccs1 | 0.0876% |
| Cc1cc(Br)ccc1NC(=O)C1C2CCC(O2)C1C(=O)O (stereo not shown) | 10.6% |
| COc1ccc(C(=O)Cn2cnc3ccccc3c2=O)cc1OC | 16.6% |
| O=C([O-])C(CCCCNS(=O)(=O)c1ccc(F)cc1)NS(=O)(=O)c1ccc(F)cc1.[K+] (stereo not shown) | 16.7% |
| O=c1oc2ccccc2c(NC2CCCCC2)c1NS(=O)(=O)c1ccc(Cl)cc1 | 10.5% |
| CCn1cc(CN2CCN(Cc3ccc(C)o3)C(CCO)C2)c2ccccc21 (stereo not shown) | 11.9% |

| Compound | hERG current change (%, negative = inhibition) at 1uM |
| --- | --- |
| COc1ccc(C)cc1NC(=O)CCS(=O)(=O)c1ccc2c(c1)oc(=O)n2C | 21.4% |
| COc1cccc(N2CC(O)=C(c3nc4ccccc4s3)C2=N)c1 | 7.52% |
| CC1C(=O)N2CCCc3cc(NC(=O)c4ccccc4Br)cc1c32 (stereo not shown) | 2.41% |
| CC1(C)Cc2cccc(C(=O)Nc3ccncc3)c2O1 | 8.04% |
| O=[N+]([O-])c1ccc(O)c(-c2nc(-c3ccccc3)c(-c3cccs3)[nH]2)c1 | -2.65% |
| COc1ccc(-c2nc(CS(=O)(=O)CC(=O)NCc3ccccc3Br)c(C)o2)cc1 | 1.58% |
| CCn1nc(C)c(CNC(=O)C2CCC(=O)N(CCc3ccc(Cl)cc3)C2)c1C (stereo not shown) | 16.2% |
| O=c1c(/C=N\NS(=O)(=O)c2ccccc2)coc2ccc(Cl)cc12 | 9.18% |
| COc1cccc(OCc2nc3ncc(Br)cc3[nH]2)c1 | 12.1% |
| COc1ccc(CN2C(=O)C(C)S/C2=N/N=C/c2ccco2)cc1 (stereo not shown) | 15.2% |
| O=c1cc(-c2ccc(Br)cc2)[nH][nH]1 | 16.3% |
| NNC(=O)c1sc2cc(C(F)(F)F)cnc2c1-c1ccccn1 | 12.7% |
| Cc1ccc(C)c(CN2C(=O)CSc3ccc(C(=O)NCC(C)CN4CCC(C)CC4)cc32)c1 (stereo not shown) | -70.4% |
| COC(=O)Cc1cc(=O)oc2cc(O)ccc12 | 9.01% |
| CC1(c2ccc([N+](=O)[O-])cc2)NC(=O)NC1=O (stereo not shown) | 10.6% |
| O=C(OCc1nnc(-c2ccccc2)o1)c1ccc(CO)cc1 | 18.3% |
| CCOC(=O)c1cnn(-c2cc(Oc3ccccc3)ncn2)c1N | 4.93% |
| Cn1cccc1Cc1nnc(SCC(=O)N2CCCc3ccccc32)n1-c1ccc(F)cc1 | 1.94% |
| O=C(/C=C/c1ccco1)NCc1ccc2c(c1)OCO2 | 13.7% |
| COc1ccc(CNC(=O)CN2C(=O)COc3ccc(S(=O)(=O)N4CCCC4)cc32)cc1 | 6.86% |
| O=C(Cn1c(C(F)(F)F)nc2ccccc21)c1ccc(Cl)cc1 | 5.78% |
| Cc1nc(C(=O)N2CCCC(N3CCN(c4ccccc4C)CC3)C2)cs1 (stereo not shown) | -5.07% |

| Compound | hERG current change (%, negative = inhibition) at 1uM |
| --- | --- |
| CCCCn1c2c(c(=O)n(C)c1=O)C(c1ccc(OC)cc1)N1CCCCCC1=N2 (stereo not shown) | 5.61% |
| Cc1cccc(CCNC(=O)c2nnc(Cc3ccc(Cl)cc3)o2)c1 | 8.72% |
| C/C=C/C(=O)OCC(=O)Nc1cccc(F)c1 | 12.4% |
| COc1ccc(C2=NN(S(C)(=O)=O)C(c3ccc4nccnc4c3)C2)cc1 (stereo not shown) | 11.7% |
| Cn1c2c(c(=O)n(C)c1=O)CN(Cc1ccc(F)cc1)CN2 | 6.89% |
| O=C1c2ccccc2C(=O)C1c1ccncc1 | 16.3% |
| COc1cc(C[C@H](C)[C@H](C)Cc2ccc3c(c2)OCO3)ccc1O | -5.01% |
| O=C(CCCn1c(SCC(=O)c2ccc(F)cc2)nc2ccccc2c1=O)NCc1ccccc1 | 11.1% |
| COCCN(C(=O)C(C)C)c1nnc(-c2cccc(C)c2)s1 | 11% |
| CC1(C)C2CCC1(CS(=O)(=O)NCc1ccc(C(F)(F)F)cc1)C(=O)C2 (stereo not shown) | 14.9% |
| Cc1c(Cl)c(C(=O)N2CCCc3ccccc32)nn1C | 14.6% |
| FC(F)Oc1ccc(-c2csc(=Nc3cccnc3)n2CC2CCCO2)cc1 (stereo not shown) | 6.15% |
| COCCn1c(N)c(N(Cc2ccccc2)C(=O)C2=COCCO2)c(=O)[nH]c1=O | 14.9% |
| CN1C[C@@H]2C(c3ccc(C(F)(F)F)cc3)C3(c4ccc(C#N)cc4)CC2(C3)[C@H]1c1ccccc1 (stereo partly shown) | 15.3% |
| O=C(Nc1ccccc1N1CCCC1)C1CC(=O)N(Cc2ccccc2)C1 (stereo not shown) | -9.7% |
| NS(=O)(=O)c1ccc(CNC(=O)/C=C/c2ccc(Cl)c(Cl)c2)cc1 | 6.01% |
| COc1ccc(NS(=O)(=O)c2ccc(N3CCCC3)c(NC(=S)Nc3cccc(C)c3C)c2)cc1 | 3.05% |
| Cl.NC(N)=NC(=O)c1nc(Cl)c(N)nc1N.O | 1.88% |
| COC(=O)[C@H](Cc1ccccc1)NC(=O)N1CCN(Cc2ccccc2)CC1 | -2.39% |
| O=C1CSC(=Nc2ccccc2)N1Cc1ccccc1 | 13.2% |
| Cc1noc(/C=C/N(C)C)c1S(=O)(=O)N1CCCC(C(=O)NCc2ccco2)C1 (stereo not shown) | -4.62% |
| O=C(CCCN1C(=O)C(c2ccccc2)Oc2cccnc21)NCCc1ccc(Cl)cc1 (stereo not shown) | 15.3% |

| Compound | hERG current change (%, negative = inhibition) at 1uM |
| --- | --- |
| O=C(Cc1ccccc1[N+](=O)[O-])Nc1ccc2c(c1)OCO2 | 7.2% |
| COc1ccnc(N=CNOCc2ccc(C)cc2)c1C#N | 10.5% |
| CN(CC(=O)Nc1ccc(Cl)c(C(F)(F)F)c1)C(=O)c1cc(=O)c2ccccc2o1 | 11.1% |
| O=C(c1ccccc1)c1ccc(O)cc1O | 5.57% |
| O=C(CCN1C(=O)C2C3CCC(C3)C2C1=O)OCC(=O)c1ccc(Br)cc1 (stereo not shown) | 3.48% |
| O=c1c(N2CCOCC2)c(N2CCOCC2)c1=O | 8.97% |
| CCc1ccc(OCCn2cccn2)cc1 | 13.2% |
| CCc1ccc(N2CC(O)=C(c3nc4ccccc4c(=O)[nH]3)C2=N)cc1 | 5.36% |
| CCOC(=O)CSc1nnc(-c2ccccc2OC)o1 | -1.53% |
| COc1ccc(-c2cc(C(=O)N3CCN(c4ccccc4OC)CC3)no2)cc1OC | 9.61% |
| O=C(CSc1cccc[n+]1[O-])N1CCc2ccccc21 | 20.4% |
| CC(C)NC(=O)CSc1nc(Cc2cccs2)nc2ccccc12 | 5.83% |
| CCCCNC(=O)OC(C)CNC(=O)Oc1cccc(C)c1 (stereo not shown) | 7.31% |
| Cc1ccc(CN2C(=O)S/C(=C\c3ccccc3OCC(=O)O)C2=O)cc1 | 6.1% |
| C=C(C)c1cccc(C(C)(C)NC(=O)NNC(=O)c2ccccc2O)c1 | 8.29% |
| Cc1ccc(C(=O)NC(=S)NNC(=O)c2ccccc2O)cc1 | -1.77% |
| Brc1ccccc1-c1csnn1 | 12.5% |
| COc1cccc(NC(=O)CN2C(=O)NC3(CCc4ccccc43)C2=O)c1 (stereo not shown) | 18.2% |
| COc1ccc(-c2cc(C(=O)Nc3ccc(S(=O)(=O)Nc4onc(C)c4C)cc3)c3ccccc3n2)cc1OC | 6.03% |
| CCOC(=O)c1cnc2c(c(C)nn2CC)c1Cl | 7.19% |
| COc1ccc(C(CNC(=O)CSc2ccc(Br)cc2)N2CCOCC2)cc1 (stereo not shown) | -6.08% |
| Cc1cc(NC(=O)CSc2nnc(-c3ccc(Br)o3)n2Cc2ccccc2)no1 | -5.6% |
